From patent US20040161477A1, “Phyllanthus-derived compounds for the prevention and/or treatment of disease associated with a retrovirus” (priority 2000, published 2004)

Legend:
HIV-1 (HX10) [1] = assay: microbe, parasite or virus in culture; assay type: cell-based; conditions: Human immunodeficiency virus 1; for inhibition at 2.5 µg/mL: 2.5 μg/ml; for inhibition at 5 µg/mL: 5 μg/ml
HIV-2 strain (ROD) = assay: Infection reporter assay in MAGI cells, HIV-2 strain; assay type: cell-based; conditions: Human immunodeficiency virus 2, wild type strain HIV-2rod
[2] = target: recombinant HIV-1 reverse transcriptase (RT) (Human immunodeficiency virus type 1 group M subtype B, UniProt P04585); assay: Recombinant HIV-1 reverse transcriptase assay (Screen RTA, Retro-Tech); assay type: biochemical; conditions: 10 μg/ml, 2 h incubation, from FIG. 1
HIV-1 (HX10) [3] = assay type: cell-based; conditions: 1.25 μg/ml, 7 days, ca. 100 TCID50, from FIG. 2
wild type HIV-1 = assay: Virus-uptake (internalization) assay in MAGI cells, intracellular p24; assay type: cell-based; conditions: 10, 2.5 and 0.625 μg/ml
[4] = target: HIV-1 gp120 binding to CD4 (Human immunodeficiency virus type 1 group M subtype B, UniProt P04578); assay: biochemical
[5] = target: HIV reverse transcriptase (Human immunodeficiency virus type 1 group M subtype B, UniProt P04585); conditions: Liu et al., Planta Med. 65 (1999), 43-46; cited from earlier work
[6] = MAGI cells, HIV-1 HX10, triplicates

## O=C1O[C@H]2[C@@H]3OC(=O)c4cc(O)c(O)c(O)c4-c4c(cc(O)c(O)c4O)C(=O)OC[C@H]2O[C@@H](OC(=O)c2cc(O)c(O)c(O)c2)[C@@H]3OC(=O)c2cc(O)c(O)c3c2[C@@H]2C1=CC(=O)[C@](O)(O3)C2(O)O [Geraniin, geraniin]
HIV-1 (HX10) [1]; 1.25 μg/ml, MAGI cells, HIV-1 HX10, triplicates
  inhibition at 1.25 µg/mL: 66 ± 8%
HIV-1 (HX10) [1]; [6]
  inhibition at 2.5 µg/mL: 80 ± 4%
  inhibition at 5 µg/mL: 93 ± 5%
HIV-1 (HX10) [1]; wild type strain HX10, MAGI cells
  EC50: 0.74 µg/mL (≈ 0.777 µM)
HIV-2 strain (ROD)
  EC50: 0.83 µg/mL (≈ 0.871 µM)
[2]
  inhibition at 10 µg/mL: > 80%
HIV-1 (HX10) [3]
  inhibition of HIV-1 replication in MT4 cells: complete inhibition
Wild type HIV-1
  internalization of virus (intracellular HIV-1 p24): blocked by geraniin in a dose dependent manner
[4]
  IC50: 504 nM
[5]
  inhibitory effect on HIV reverse transcriptase: strong inhibitory effect

## O=C(O[C@@H]1O[C@@H]2COC(=O)c3cc(O)c(O)c(O)c3-c3c(cc(O)c(O)c3O)C(=O)O[C@H]([C@H]1O)[C@@H]2O)c1cc(O)c(O)c(O)c1 [Corilagin, corilagin]
HIV-1 (HX10) [1]; [6]
  inhibition at 2.5 µg/mL: 38 ± 13%
  inhibition at 5 µg/mL: 73 ± 9%
HIV-1 (HX10) [1]; 10 μg/ml, MAGI cells, HIV-1 HX10, triplicates
  inhibition at 10 µg/mL: 85 ± 7%
[2]
  inhibition at 10 µg/mL: > 35%
[5]
  inhibitory effect on HIV reverse transcriptase: strong inhibitory effect

Values after ≈ are worked out from the molar mass of the structure shown.
